For one substance, binding results are on record in publication PMC9600267, “The Antibacterial Type VII Secretion System of Bacillus subtilis: Structure and Interactions of the Pseudokinase YukC/EssB” (mBio, 2022).

Protein sequences, listed by entry. Tags and fused reporters are not part of them. Residues count along the entry.
UniProt P42296, residues 1-97: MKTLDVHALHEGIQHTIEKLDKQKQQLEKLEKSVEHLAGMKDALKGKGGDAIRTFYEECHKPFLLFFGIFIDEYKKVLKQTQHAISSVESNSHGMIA

Results are given in words; binding and its absence hold for the method and conditions named. Some results given as binding are weak or reduced against the parent protein; the word gives no strength. For some assays here: Where a sequence is shown, tags or fusion partners need not be part of it.

Experiment in all cases: two-hybrid; bacterial two-hybrid (BACTH) in E. coli BTH101; T25 (pKT25/pKNT25) and T18 (pUT18/pUT18C) fusions; spots on LB with X-Gal and IPTG, 25°C, imaged after 48 h
The target in assay [1] is T1, YukD, bacterial two-hybrid fusion (Bacillus subtilis 168) (UniProt P71071).
T1 sequence: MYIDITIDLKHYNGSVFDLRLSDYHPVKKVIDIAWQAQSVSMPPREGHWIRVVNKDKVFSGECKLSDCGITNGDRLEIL

The target of assay [2] is T2, YueB (full length), bacterial two-hybrid fusion (Bacillus subtilis 168) (UniProt O32101).
T2 sequence: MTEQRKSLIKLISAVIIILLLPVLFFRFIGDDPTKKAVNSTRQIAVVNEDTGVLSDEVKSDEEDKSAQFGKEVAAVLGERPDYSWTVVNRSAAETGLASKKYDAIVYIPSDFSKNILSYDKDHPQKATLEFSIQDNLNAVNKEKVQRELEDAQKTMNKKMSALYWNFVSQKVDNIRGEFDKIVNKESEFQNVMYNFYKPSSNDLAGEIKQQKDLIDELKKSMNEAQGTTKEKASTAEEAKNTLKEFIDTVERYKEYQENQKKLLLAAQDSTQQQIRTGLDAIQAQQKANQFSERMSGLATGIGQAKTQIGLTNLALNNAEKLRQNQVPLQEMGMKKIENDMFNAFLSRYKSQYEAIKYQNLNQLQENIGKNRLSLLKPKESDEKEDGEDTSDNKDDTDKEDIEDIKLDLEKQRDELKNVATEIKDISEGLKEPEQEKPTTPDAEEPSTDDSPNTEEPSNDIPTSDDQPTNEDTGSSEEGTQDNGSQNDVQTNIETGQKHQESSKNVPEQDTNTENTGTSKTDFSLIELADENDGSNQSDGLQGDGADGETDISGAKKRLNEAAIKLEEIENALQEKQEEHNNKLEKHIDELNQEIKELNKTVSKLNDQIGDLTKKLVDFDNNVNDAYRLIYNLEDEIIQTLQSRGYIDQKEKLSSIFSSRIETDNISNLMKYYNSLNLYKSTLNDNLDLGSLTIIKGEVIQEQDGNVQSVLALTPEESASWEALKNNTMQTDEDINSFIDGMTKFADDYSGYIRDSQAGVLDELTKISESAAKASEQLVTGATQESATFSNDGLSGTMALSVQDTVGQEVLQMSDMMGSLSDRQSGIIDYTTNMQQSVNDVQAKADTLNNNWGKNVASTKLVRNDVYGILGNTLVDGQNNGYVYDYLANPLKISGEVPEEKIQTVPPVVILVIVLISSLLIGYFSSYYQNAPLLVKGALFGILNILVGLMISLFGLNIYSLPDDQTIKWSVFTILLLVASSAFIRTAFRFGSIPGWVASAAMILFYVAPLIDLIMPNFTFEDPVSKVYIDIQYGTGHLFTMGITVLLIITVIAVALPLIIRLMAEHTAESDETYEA

For assay [3], the target named is YxiD N-terminal 97-amino-acid region (YxiDN), bacterial two-hybrid fusion (Bacillus subtilis 168) (UniProt P42296).
The target in assay [4] is T3, YukE, bacterial two-hybrid fusion (Bacillus subtilis 168) (UniProt C0SP85).
T3 sequence: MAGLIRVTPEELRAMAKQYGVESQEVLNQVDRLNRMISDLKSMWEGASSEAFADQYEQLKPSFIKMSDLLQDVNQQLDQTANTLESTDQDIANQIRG

For assay [5], the target named is T4, YukC (full length), bacterial two-hybrid fusion (Bacillus subtilis 168) (UniProt P71070).
T4 sequence: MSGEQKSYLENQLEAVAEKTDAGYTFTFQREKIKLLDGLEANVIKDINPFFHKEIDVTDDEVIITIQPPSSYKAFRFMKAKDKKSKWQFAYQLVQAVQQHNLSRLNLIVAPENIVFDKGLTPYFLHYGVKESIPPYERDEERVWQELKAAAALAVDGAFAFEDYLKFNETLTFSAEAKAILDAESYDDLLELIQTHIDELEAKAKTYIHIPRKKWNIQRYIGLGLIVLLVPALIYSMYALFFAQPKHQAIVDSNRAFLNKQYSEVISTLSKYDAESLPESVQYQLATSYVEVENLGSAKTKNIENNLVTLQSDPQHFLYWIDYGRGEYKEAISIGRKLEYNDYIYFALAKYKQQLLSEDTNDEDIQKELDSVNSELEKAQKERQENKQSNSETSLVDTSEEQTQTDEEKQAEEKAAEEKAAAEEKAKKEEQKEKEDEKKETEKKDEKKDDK

Turning to “YxiD N-terminal 97-amino-acid region (YxiDN), bacterial two-hybrid fusion (from UniProt P42296 1-97) (domain or fragment)”, the binding result was “no binding” in assay [1]; “no binding” in assay [2]; “binds” in assay [3]; “binds” in assay [4]; “binds” in assay [5].
